# Experimental data: PubChem BioAssay AID588855 (National Center for Advancing Translational Sciences (NCATS), 2011)
# In all, about 410,000 compounds went through this assay and about 5,000 (1.2%) were called active. Inconclusive results, whose numbers are uncertain, are shown with a selection of clear calls. The call rests on the fitted dose curve; in most records, active means well fitted inhibition curve with a large enough effect; inconclusive means small, poorly fitted or top-dose-only effect; inactive means no such curve, though single readings can be large or run the other way. A potency beside an inconclusive call is a rough fit, not a confirmed value.
# Experiment: qHTS for Inhibitors of TGF-b; further: nearly all actives have a fitted effect of over 65% in size
# Settings: HepG2 CAGA-GFP TGF-b/SMAD3 reporter, GFP fluorescence, 18 h, TGF-beta stimulated, 500 pg/mL final; series mostly up to 46.1 µM
# In short: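 TGF-beta reporter screen: HEPG2 CAGA-GFP, 1% FBS, 500 pg/mL TGF-beta final, 18 h; per-cell GFP summed per well; curves fitted and categorized by class.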
# Potency means the concentration at half of the fitted maximal effect; tags describe the fitted curve by direction and shape.
row,Structure (SMILES),Potency
1,COc1ccc(CCN(C(=O)c2cccc(F)c2)C2CC(=O)N(c3ccc(OC)cc3)C2=O)cc1 (stereo unspecified),"inconclusive: 2.82 µM [inhibitor, full curve, poor fit]"
2,COc1ccc(C(=O)Oc2cc(C)c(CN3CCOCC3)cc2C)cc1OC,inactive
3,O=C(CSc1ccc(Cl)cc1)N/N=C/c1ccc([N+](=O)[O-])o1,"inconclusive: 17.8 µM [inhibitor, single point]"
4,COc1ccc(NC(C)=O)cc1NC(=O)CN1CCN(S(=O)(=O)c2ccc(C(C)C)cc2)CC1,"inconclusive: 5.62 µM [inhibitor, single point]"
5,CC(C)(C)[C@H]1COC(=O)[C@@H](Cc2ccc(F)cc2)CC/C=C/C[C@@H](CC(=O)N[C@H](CO)Cc2ccccc2)C(=O)N1,"inconclusive: 8.91 µM [inhibitor, partial curve, poor fit]"
6,CCOC(=O)CN1C(C(=O)c2ccccc2)=C(OC(=O)c2ccccc2)c2ccccc2S1(=O)=O,"inconclusive: 35.5 µM [inhibitor, partial curve, poor fit]"
7,Cc1ccc(NC(=O)C2CCCN(S(=O)(=O)c3ccc(F)cc3)C2)cc1 (stereo unspecified),"inconclusive: 10 µM [inhibitor, partial curve, poor fit]"
8,CCCCOc1ccc(C(=O)Nc2onc3c2CCCC3)cc1,inactive
9,O=C1CC(N2CCN(C3CC(=O)N(CCc4ccccc4)C3=O)CC2)C(=O)N1CCc1ccccc1 (stereo unspecified),inactive
10,COc1ccc(OCCSc2nnc(-c3ccc(OC)cc3)n2N)cc1,"inconclusive: 0.447 µM [inhibitor, partial curve, poor fit]"
11,COc1ccc(S(=O)(=O)N2CCOCC2)cc1NC(=O)CN(C)Cc1c(F)cccc1Cl,"inconclusive: 11.2 µM [inhibitor, partial curve, poor fit]"
12,Cc1ccc(NC(=O)c2ccc([N+](=O)[O-])o2)cc1C,"inconclusive: 22.4 µM [inhibitor, single point]"
13,O=C(C[n+]1cccc(CNC(=O)c2ccc(OC(F)F)cc2)c1)Nc1cc(C(F)(F)F)ccc1Cl,inactive
14,COc1ccccc1-n1c(Cc2cccs2)n[nH]c1=S,inactive
15,Cc1ccc(S(=O)(=O)c2nc(Nc3nccs3)sc2Cl)cc1,"inconclusive: 20 µM [inhibitor, single point]"
16,O=C(Nc1ccccc1Cl)C1C(c2ccccc2)C1(Cl)Cl (stereo unspecified),"inconclusive: 35.5 µM [inhibitor, single point]"
17,Cc1ccc(C(=O)N2N=C(c3ccc(NS(C)(=O)=O)cc3)CC2c2cccs2)cc1 (stereo unspecified),"inconclusive: 35.5 µM [inhibitor, single point]"
18,CCOc1ccccc1NC(=O)C(OC(=O)c1ccc(N(C)C)cc1)c1ccccc1 (stereo unspecified),inactive
19,COc1cccc(OC)c1OCc1cc(C2C3CCCC=C3C(C#N)=C(N)C2(C#N)C#N)c(C)cc1C (stereo unspecified),"inconclusive: 35.5 µM [inhibitor, single point]"
20,O=C(COc1ccccc1F)Nc1ccc(Cl)c(-c2nc3ccccc3[nH]2)c1,"inconclusive: 15.8 µM [inhibitor, single point]"
21,COc1ccc(-c2noc(CCC(=O)N3CCN(c4cccc(C(F)(F)F)c4)CC3)n2)cc1,"inconclusive: 5.01 µM [inhibitor, full curve, poor fit]"

row,Structure (SMILES),Potency
1,CCN(Cc1ccc(Cl)s1)C(=O)c1cccc(OCc2c(C)noc2C)c1,"inconclusive: 35.5 µM [inhibitor, single point]"
2,Cc1ccc(-n2c(=O)c3cccnc3n2CC(=O)NCc2ccc(F)cc2)cc1C,"inconclusive: 17.8 µM [inhibitor, single point]"
3,O=C(c1cc(Br)c(Br)s1)N1CCc2ccccc2C1,"inconclusive: 11.2 µM [inhibitor, partial curve, poor fit]"
4,CSc1ccc(CN2CCc3c([nH]c4ccccc34)C2)cc1,"inconclusive: 25.1 µM [inhibitor, single point]"
5,Nc1cc(OCC(F)(F)F)cc(OCC(F)(F)F)c1,"inconclusive: 12.6 µM [inhibitor, partial curve, poor fit]"
6,COc1ccc(-c2cc(C(=O)NCC(c3ccco3)N(C)C)c3ccccc3n2)cc1OC (stereo unspecified),inactive
7,N#Cc1c(N)n(C2OC(CO)C(O)C2O)c2ncnc(N)c12 (stereo unspecified),"inconclusive: 0.1 µM [inhibitor, full curve, poor fit]"
8,C=CCC[C@@H](Cc1ccc(F)cc1)C(=O)OC[C@@H](Cc1c[nH]c2ccccc12)NC(=O)[C@@H](CC=C)CC(=O)N(CCO)Cc1ccccc1,active: 12.6 µM
9,O=C(OCc1nc2ccccc2s1)C1CCN(C2=NS(=O)(=O)c3ccccc32)CC1,"inconclusive: 8.91 µM [inhibitor, partial curve, poor fit]"
10,COc1ccc(NC(=S)/N=C(\N)Nc2nc(C)c3ccccc3n2)cc1,"inconclusive: 25.1 µM [inhibitor, single point]"
11,COc1ccc(-c2cc(C(F)(F)F)nc(NC3CCCC3)n2)cc1OC,inactive
12,C[C@@H](NC(=O)c1[nH]cnc1C(=O)Nc1ccc(Cl)cc1)c1ccccc1,"inconclusive: 35.5 µM [inhibitor, single point]"
13,CC1=C(c2ccc(C)c(C)c2)S(=O)(=O)N=C1N1CCC(C(=O)NCc2ccc(Cl)cc2)CC1,"inconclusive: 35.5 µM [inhibitor, single point]"
14,Cc1ccc2occ(/C=N/NC(=O)c3ccccc3O)c(=O)c2c1,"inconclusive: 8.91 µM [inhibitor, partial curve, poor fit]"
15,O=[N+]([O-])c1ccc(-c2ccc(/C=N/Nc3nc(N4CCCC4)nc(N4CCCC4)n3)o2)cc1,inactive
16,COc1ccc(CNS(=O)(=O)c2cc(-c3cc(C)no3)ccc2C(C)C)cc1,"inconclusive: 11.2 µM [inhibitor, partial curve, poor fit]"
17,CCS(=O)c1ccccc1C(=O)OCC(=O)Nc1cccc(S(=O)(=O)N2CCCCC2)c1 (stereo unspecified),"inconclusive: 12.6 µM [inhibitor, single point]"
18,COc1ccc(N2CCN(C3CCCN(C(=O)c4ccoc4)C3)CC2)cc1 (stereo unspecified),"inconclusive: 3.16 µM [inhibitor, single point]"
19,CC(OC(=O)CCc1nc2ccccc2c(=O)[nH]1)C(=O)c1ccc(C(C)(C)C)cc1 (stereo unspecified),inactive
20,Cc1nn(-c2ccccc2)c(Cl)c1C(=O)NCC(C)C,"inconclusive: 25.1 µM [inhibitor, single point]"
21,Cc1ccc(S(=O)(=O)NCC(=O)Nc2ccc(C(F)(F)F)cc2)cc1,"inconclusive: 0.0891 µM [inhibitor, full curve, poor fit]"

row,Structure (SMILES),Potency
1,CN1C(=S)SC(N(O)C(=O)Nc2cccc3ccccc23)C1(C)C (stereo unspecified),"inconclusive: 5.62 µM [inhibitor, single point]"
2,CCOc1ccc(-c2cc(C(=O)OC)[nH]n2)cc1,inactive
3,OC1(c2ccc(Br)cc2)CCN(Cc2cccc(Br)c2)CC1,"inconclusive: 22.4 µM [inhibitor, single point]"
4,O=c1[nH]c2ccc(NCc3ccccc3F)cc2[nH]1,"inconclusive: 3.16 µM [inhibitor, single point]"
5,COc1cccc(N2[C@@H](CC(=O)O)c3cc(C(F)(F)F)ccc3S2(=O)=O)c1,"inconclusive: 6.31 µM [inhibitor, single point]"
6,CC1CCC(NC(=O)COc2ccccc2C(N)=O)CC1 (stereo unspecified),inactive
7,CCCC(=O)Nc1cccn(Cc2ccccc2Br)c1=O,"inconclusive: 3.98 µM [inhibitor, full curve, poor fit]"
8,CCOc1ccc(CCNC(=O)c2cc3c(=O)n(C)c4ccccc4c3n2C)cc1,"inconclusive: 2.82 µM [inhibitor, full curve, poor fit]"
9,Cc1ccc(S(=O)(=O)Oc2ccc(/C=C3/N=C(c4ccccc4)OC3=O)cc2)cc1,"inconclusive: 5.62 µM [inhibitor, single point]"
10,C/C(=N\Nc1nc(-c2cc(C)ccc2C)cs1)c1cc2ccccc2oc1=O,"inconclusive: 0.112 µM [inhibitor, full curve, poor fit]"
11,COc1cc(NC(=O)Cc2ccc(OC)c(S(=O)(=O)N3CCOCC3)c2)c(OC)cc1Cl,"inconclusive: 8.91 µM [inhibitor, partial curve, poor fit]"
12,CCn1c(CNC(=O)C23CC4CC(CC(C4)C2)C3)nnc1SCC(=O)Nc1ccc(F)cc1,"inconclusive: 25.1 µM [inhibitor, single point]"
13,COc1ccc(OCCCC(=O)N(CCC2=CCCCC2)c2c(N)n(Cc3ccccc3)c(=O)[nH]c2=O)cc1,"inconclusive: 17.8 µM [inhibitor, single point]"
14,COc1cc2c(NC3CCN(C)CC3)nc(N3CCCN(C)CC3)nc2cc1OCCCC(C)C,active: 2.82 µM
15,CCOc1ccccc1OCCCOc1ccc([N+](=O)[O-])cc1Cl,"inconclusive: 22.4 µM [inhibitor, single point]"
16,Cc1ccc(NC(=S)NC(C)CCc2ccccc2)cc1C (stereo unspecified),"inconclusive: 17.8 µM [inhibitor, partial curve, poor fit]"
17,COc1ccccc1CC(=O)N1CCN(S(=O)(=O)c2ccccc2F)CC1,inactive
18,CCc1c(C)nc(SCC(=O)Nc2c(C)n(C)n(-c3ccccc3)c2=O)[nH]c1=O,"inconclusive: 35.5 µM [inhibitor, single point]"
19,Cc1cccc(N2CCN(c3ncnc4c3c(-c3ccccc3)cn4-c3ccccc3)CC2C)c1 (stereo unspecified),"inconclusive: 0.562 µM [inhibitor, full curve, poor fit]"
